# Experimental data reported in PMC11849937, “Atractylenolide I inhibits angiogenesis and reverses sunitinib resistance in clear cell renal cell carcinoma through ATP6V0D2-mediated autophagic degradation of EPAS1/HIF2α” (Autophagy, 2024).
# Target: T1, GST-tagged ATP6V0D2 (UniProt Q8N8Y2)
# T1 construct: ATP6V0D2, ATPase H+ transporting V0 subunit d2; Construct bought from Tsingke Biotechnology; also called GST-ATP6V0D2; source: BL21 (Rosetta) bacterial cells, purified (glutathione-Sepharose beads)
# Assay: pull-down; GST-tagged protein (2.5 ug) immobilised on glutathione-Sepharose beads, incubated with His-RAB7, His-VPS41 or both in affinity-isolation buffer with PMSF; western blot
# Conditions: both partners purified
binder,measurement,value
"His-RAB7 (recombinant, bacterial) (natural protein, RAB7; The only His-RAB7 plasmid that the methods name is in the vector pGMLV; source: BL21 (Rosetta) bacterial cells, purified (His beads)) not shown",binding result,binds
